Data reported in article PMC8138981, “An epilepsy-causing mutation leads to co-translational misfolding of the Kv7.2 channel” (BMC Biology, 2021).

Biological target: T1, HA-Kv7.3 (Kv7.3 with an extracellular hemagglutinin epitope) (human, UniProt O43525 1-872)
T1 construct: Kv7.3 (KCNQ3), human, cDNA NM004519; also called pcDNA3-HA-Kv7.3; source: HEK293T, transfected (pcDNA3), in lysate
T1 sequence (looked up): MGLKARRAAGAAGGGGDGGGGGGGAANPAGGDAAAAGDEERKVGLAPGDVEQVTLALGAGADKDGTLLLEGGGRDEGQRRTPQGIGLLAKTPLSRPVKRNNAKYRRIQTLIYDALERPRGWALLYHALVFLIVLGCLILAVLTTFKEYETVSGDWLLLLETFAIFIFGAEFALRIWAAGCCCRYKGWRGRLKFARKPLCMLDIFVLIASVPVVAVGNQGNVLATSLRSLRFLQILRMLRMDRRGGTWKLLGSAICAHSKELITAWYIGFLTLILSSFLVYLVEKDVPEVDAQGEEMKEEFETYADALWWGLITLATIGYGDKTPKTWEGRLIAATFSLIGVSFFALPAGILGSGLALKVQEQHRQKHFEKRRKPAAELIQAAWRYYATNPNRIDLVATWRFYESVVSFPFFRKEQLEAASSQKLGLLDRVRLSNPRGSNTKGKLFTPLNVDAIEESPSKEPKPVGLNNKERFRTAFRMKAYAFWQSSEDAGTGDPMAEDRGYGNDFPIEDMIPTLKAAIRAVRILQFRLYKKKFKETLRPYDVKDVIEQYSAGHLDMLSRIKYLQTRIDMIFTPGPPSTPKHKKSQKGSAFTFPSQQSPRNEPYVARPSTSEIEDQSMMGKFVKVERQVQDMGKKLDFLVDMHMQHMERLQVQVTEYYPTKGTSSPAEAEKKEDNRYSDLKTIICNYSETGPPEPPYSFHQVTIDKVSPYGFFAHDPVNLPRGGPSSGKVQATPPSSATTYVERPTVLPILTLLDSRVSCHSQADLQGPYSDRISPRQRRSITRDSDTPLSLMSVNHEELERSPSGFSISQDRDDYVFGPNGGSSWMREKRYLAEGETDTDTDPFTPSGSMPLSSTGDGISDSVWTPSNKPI
Assay: co-IP; HEK293T co-transfected with 1 μg HA-Kv7.3 and 0.5 μg CFP-Kv7.2 WT or I340E, or 1 μg CFP-Kv7.2 W344R; 1% Triton X-100 IP buffer; rabbit anti-HA on protein A/G agarose, overnight 4 °C; blots with anti-GFP and anti-HA, normalised to WT
Conditions: partners not purified

B1: CFP-tagged Kv7.2 I340E subunit (natural protein, human)
chain: MVQKSRNGGVYPGPSGEKKLKVGFVGLDPGAPDSTRDGALLIAGSEAPKRGSILSKPRAGGAGAGKPPKRNAFYRKLQNFLYNVLERPRGWAFIYHAYVFLLVFSCLVLSVFSTIKEYEKSSEGALYILEIVTIVVFGVEYFVRIWAAGCCCRYRGWRGRLKFARKPFCVIDIMVLIASIAVLAAGSQGNVFATSALRSLRFLQILRMIRMDRRGGTWKLLGSVVYAHSKELVTAWYIGFLCLILASFLVYLAEKGENDHFDTYADALWWGLITLTTIGYGDKYPQTWNGRLLAATFTLIGVSFFALPA[about 350 residues with changes cut from this listing]RHGCIVKIVRSSSSTGQKNFSAPPAAPPVQCPPSTSWQPQSHPRQGHGTSPVGDHGSLVRIPPPPAHERSLSAYGGGNRASMEFLRQEDTPGCRPPEGNLRDSDTSISIPSVDHEELERSFSGFSISQSKENLDALNSCYAAVAPCAKVRPYIAEGESDTDSDLCTPCGPPPRSATGEGPFGDVGWAGPRK
notes: Whole subunit implied; also called CFP-Kv7.2 I340E; source: HEK293T, transfected (pcDNA3.1), in lysate; not shown: CFP, N-terminal, kept
With B1 the “co-IP signal relative to WT” value was 84.3%.

B2: CFP-tagged Kv7.2 W344R subunit (natural protein, human)
chain: MVQKSRNGGVYPGPSGEKKLKVGFVGLDPGAPDSTRDGALLIAGSEAPKRGSILSKPRAGGAGAGKPPKRNAFYRKLQNFLYNVLERPRGWAFIYHAYVFLLVFSCLVLSVFSTIKEYEKSSEGALYILEIVTIVVFGVEYFVRIWAAGCCCRYRGWRGRLKFARKPFCVIDIMVLIASIAVLAAGSQGNVFATSALRSLRFLQILRMIRMDRRGGTWKLLGSVVYAHSKELVTAWYIGFLCLILASFLVYLAEKGENDHFDTYADALWWGLITLTTIGYGDKYPQTWNGRLLAATFTLIGVSFFALPA[about 350 residues with changes cut from this listing]RHGCIVKIVRSSSSTGQKNFSAPPAAPPVQCPPSTSWQPQSHPRQGHGTSPVGDHGSLVRIPPPPAHERSLSAYGGGNRASMEFLRQEDTPGCRPPEGNLRDSDTSISIPSVDHEELERSFSGFSISQSKENLDALNSCYAAVAPCAKVRPYIAEGESDTDSDLCTPCGPPPRSATGEGPFGDVGWAGPRK
notes: Whole subunit implied; also called CFP-Kv7.2-W344R; CFP-KCNQ[…]R; source: HEK293T, transfected (pcDNA3.1), in lysate; not shown: mCFP, N-terminal, kept
In the case of B2, the “co-IP signal relative to WT” value is reported as 76.4%.
